11 variants from the supplement of paper PMC12217912 can be followed below.

The chains are these.
B1: TEV protease; numbered along this chain (parent)
chain: MGESLFKGPRDYNPISSSICHLTNESDGHTTSLYGIGFGPFIITNKHLFRRNNGTLVVQSLHGVFKVKDTTTLQQHLVDGRDMIIIRMPKDFPPFPQKLKFREPQREERICLVTTNFQTKSMSSMVSDTSCTFPSGDGIFWKHWIQTKDGQCGSPLVSTRDGFIVGIHSASNFTNTNNYFTSVPKNFMELLTNQEAQQWVSGWRLNADSVLWGGHKVFMVKPEEPFQPVKEATQL

The list shows a part of the results. The full chains were built here from the parent and the listed change. Values near 0.05 are background.
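Also: Bxb1 expression induced with 0.2% (w/v) L-rhamnose at OD600 near 0.5, cultures sampled hourly, flipped fraction per protease–substrate barcode pair counted by paired-end Illumina sequencing.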

In this test the parent is B1. Description: raw area under fraction-flipped curve 0-4 h after induction (AUC4h, not background-subtracted), DNA-recorder readout of cleavage of the substrate (dimensionless); higher = more cleavage of the substrate by the protease variant. As to conditions: temperature: 34 °C; time window: 0-4 h after rhamnose induction. The protocol:
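In vivo DNA recorder in E. coli TOP10(DE3) ΔrhaA at 34 °C. Each TEVp single-site mutant (parent TEVp 0) is paired with a single-site variant of the 7-mer TEVs (canonical ENLYFQ|S). The substrate sits between flexible linkers in a Bxb1-sfGFP-TEVs-SsrA fusion, so cleavage stabilises Bxb1 and speeds flipping of a recombination array, read by NGS. The value is the raw area under the fraction-flipped curve over 0-4 h after rhamnose induction (AUC4h), with ≥20 reads per time point. It is not background-subtracted; inactive controls average about 0.047.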
On to MGESLFKGPRDYNPISSSICHLTNESDGHTTSLYGIGFGPFIITNKHLFRRNNGTLVVQSLHGVFKVKDTTTLQQHLVDGRDMIIIRMPKDFPPFPQKLKFREPQREERICLVTTNFQTKSMSSMVSDTSCTFPSGDGIFWKHWIQTKDGQCGSPLVSTRDGFIVGIHSPSNFTNTNNYFTSVPKNFMELLTNQEAQQWVSGWRLNADSVLWGGHKVFMVKPEEPFQPVKEATQL [A170P], for which the “area with substrate ENLYFQG” value was found to be 0.06, the “area with substrate ENLYFQI” value stood at 0.0507, the “area with substrate ENLYFQK” value was 0.0568 and the “area with substrate ENLYFQR” value came out at 0.0643. For the same variant, the “area with substrate ENLYFQS” value came to 0.0576, the “area with substrate ENLYFQT” value turned out to be 0.0537 and the “area with substrate ENLYFQV” value was 0.0578.

Turning to MGESLFKGPRDYNPISSSICHLTNESDGHTTSLYGIGFGPFIITNKHLFRRNNGTLVVQSLHGVFKVKDTTTLQQHLVDGRDMIIIRMPKDFPPFPQKLKFREPQREERICLVTTNFQTKSMSSMVSDTSCTFPSGDGIFWKHWIQTKDGQCGSPLVSTRDGFIVGIHSASNFTNTNNYFTSVPKNFMELLTNQEAQQWVSGWRLNADSVLWGGHKVFMVKPEEPFQPVREATQL [K230R], the “area with substrate ENLYFQG” value was 0.0828, the “area with substrate ENLYFQL” value was determined as 0.0687, the “area with substrate ENLYFQR” value stood at 0.0524 and the “area with substrate ENLYFQS” value stood at 0.109. In addition, the “area with substrate ENLYFQT” value was found to be 0.0517 and the “area with substrate ENLYFQW” value came out at 0.0632.

As for MGESLFKGPRDYNPISSSICHLTNESDGHTTSLYGIGFGPFIITNKHLFRRNNGTLVVQSLHGVFKVKDTTTLQQHLVDGRDMIIIRMPKDFPPFPQKLKFREPQREERICLVTTNFQTKSMSSMVSDTSCTFPSGDGIFWKHWIQTKDGQCGSPLVSTRDGFIVGIHSASNFTNTNNYFTSVPKNFMELLTNQEAQQWVSGWRLNAASVLWGGHKVFMVKPEEPFQPVKEATQL [D208A], the “area with substrate ENLYFQG” value was determined as 0.0862, the “area with substrate ENLYFQL” value worked out at 0.0673, the “area with substrate ENLYFQR” value was 0.0623 and the “area with substrate ENLYFQS” value was determined as 0.0764. The “area with substrate ENLYFQV” value is 0.0855.

On to MGESLFKGPRDYNPISSSICHLTNESDGHTTSLYGIGFGPFIITNKHLFRRNNGTLVVQSLHGVFKVKDTTTLQQHLVDGRDMIIIRMPEDFPPFPQKLKFREPQREERICLVTTNFQTKSMSSMVSDTSCTFPSGDGIFWKHWIQTKDGQCGSPLVSTRDGFIVGIHSASNFTNTNNYFTSVPKNFMELLTNQEAQQWVSGWRLNADSVLWGGHKVFMVKPEEPFQPVKEATQL [K90E], for which the “area with substrate ENLYFQH” value came to 0.0989, the “area with substrate ENLYFQI” value worked out at 0.0603, the “area with substrate ENLYFQK” value stood at 0.0577 and the “area with substrate ENLYFQP” value stood at 0.0538. The “area with substrate ENLYFQR” value was found to be 0.0632, the “area with substrate ENLYFQS” value stood at 0.106 and the “area with substrate ENLYFQW” value was 0.0631.

For MGESLFKGPRDYNPISSSICHLTNESDGHTTSLYGIGFGPFIITNKHLFRRNNGTLVVQSLHGVFKVKDTTTLQQHLVDGRDMIIIRMPKDFPPFPQKLKFREPQREEMICLVTTNFQTKSMSSMVSDTSCTFPSGDGIFWKHWIQTKDGQCGSPLVSTRDGFIVGIHSASNFTNTNNYFTSVPKNFMELLTNQEAQQWVSGWRLNADSVLWGGHKVFMVKPEEPFQPVKEATQL [R109M], the “area with substrate ENLYFQH” value worked out at 0.0927, the “area with substrate ENLYFQI” value was 0.0398, the “area with substrate ENLYFQK” value is 0.063 and the “area with substrate ENLYFQN” value was 0.0541. For the same variant, the “area with substrate ENLYFQR” value amounted to 0.0628, the “area with substrate ENLYFQS” value stood at 0.0933, the “area with substrate ENLYFQT” value was 0.0637 and the “area with substrate ENLYFQV” value came out at 0.0665. In addition, the “area with substrate ENLYFQY” value was 0.0926.

For the variant MGESLFKGPRDYNPISSSICHLTNESDGHTTSLYGIGFGPFIITNKHLFRRNNGTLVVQSLHGVFKVKDTTTLQQHLVDGRDMIIIRMPKDFPPFPQKLKFREPQREERICLVTTNFQTKSMSSMVSDTSCTFPSGDGIFWKHWIQTKDGQCGSPLVSTRDGFIVGIHSASNFTNTNNYFTSVPKNFMELLTNQEAQQWVSGWRQNADSVLWGGHKVFMVKPEEPFQPVKEATQL [L205Q], the “area with substrate ENLYFQG” value amounted to 0.163, the “area with substrate ENLYFQK” value came out at 0.0729, the “area with substrate ENLYFQL” value was determined as 0.0868 and the “area with substrate ENLYFQR” value is 0.0725. The “area with substrate ENLYFQS” value worked out at 0.0833 and the “area with substrate ENLYFQW” value came out at 0.0517.

Regarding MGESLFKGPRDYNPISSSICHLTNESDGHTTSLYGIGFGPFIITNKHLFRRNNGTLVVQSLHGVFKVKDTTTLQQHLVDGRDMIIIRMPKDFPPFPQKLKFREPQREERICLVTTNFQTKSMSSMVSDTSCTFPSGDGIFWKHWIYTKDGQCGSPLVSTRDGFIVGIHSASNFTNTNNYFTSVPKNFMELLTNQEAQQWVSGWRLNADSVLWGGHKVFMVKPEEPFQPVKEATQL [Q146Y], the “area with substrate ENLYFQH” value turned out to be 0.146, the “area with substrate ENLYFQI” value worked out at 0.0557, the “area with substrate ENLYFQM” value was found to be 0.0993 and the “area with substrate ENLYFQN” value was found to be 0.0814. Moreover, the “area with substrate ENLYFQP” value was found to be 0.0648, the “area with substrate ENLYFQR” value is 0.0537, the “area with substrate ENLYFQS” value was determined as 0.116 and the “area with substrate ENLYFQV” value was 0.0557. In addition, the “area with substrate ENLYFQW” value was 0.0681.

Turning to MGESLFKGPRDYNPISSSICHLTNESDGHTTSLYGIGFGPFIITNKHLFRRNNGTLVVQSLHGVFKVKDTTTLQQHLVDGRDMIIIRMPKDFPPFPQKLKFREPQREERICLVTTNFQTKSMSSMVSDTSCTFPSGDGIFWKHWIQTKDGQCGSPLVSTRDGFIVGIHSASNFTNTNNYFTSVPKNFQELLTNQEAQQWVSGWRLNADSVLWGGHKVFMVKPEEPFQPVKEATQL [M188Q], the “area with substrate ENLYFQG” value worked out at 0.0843, the “area with substrate ENLYFQI” value was 0.0519, the “area with substrate ENLYFQK” value was 0.0682 and the “area with substrate ENLYFQL” value worked out at 0.0704. The “area with substrate ENLYFQN” value came to 0.0658, the “area with substrate ENLYFQR” value is 0.0672, the “area with substrate ENLYFQS” value came to 0.0998 and the “area with substrate ENLYFQT” value worked out at 0.0517. Moreover, the “area with substrate ENLYFQW” value worked out at 0.0876.

MGESLFKGPRDYNPISSSICHLTNESDGHTTSLYGIGFGPFIITNKHLFRRNNPTLVVQSLHGVFKVKDTTTLQQHLVDGRDMIIIRMPKDFPPFPQKLKFREPQREERICLVTTNFQTKSMSSMVSDTSCTFPSGDGIFWKHWIQTKDGQCGSPLVSTRDGFIVGIHSASNFTNTNNYFTSVPKNFMELLTNQEAQQWVSGWRLNADSVLWGGHKVFMVKPEEPFQPVKEATQL [G54P]: the “area with substrate ENLYFQH” value came to 0.0671, the “area with substrate ENLYFQL” value came to 0.0629, the “area with substrate ENLYFQN” value worked out at 0.0602 and the “area with substrate ENLYFQS” value worked out at 0.0676.

MGESLFKGPRDYNPISSSICHLTNESDGHTTSLYGIGFGPFIITNKHLFRRNNGTLVVQSLHGVFKVKDTTTLQQHLVDGRDMIIIRMPKDFPPFPQKLKFREPQREERICLVTTNFQTKSMSSMVSDTSCTFPSGDGIFWKHWIQTKDGQCGSPLVSTRDGFIVGIHSASNFTNTNNYFTSVPKNVMELLTNQEAQQWVSGWRLNADSVLWGGHKVFMVKPEEPFQPVKEATQL [F187V]: the “area with substrate ENLYFQH” value turned out to be 0.071, the “area with substrate ENLYFQP” value is 0.0585 and the “area with substrate ENLYFQS” value turned out to be 0.116.

In the case of MGESLFKGPRDYNPISSSICHLTNESDGHTTSLYGIGFGPFIITNKHLFRRNNGTLVVQSLHGVFKVKDTTTLQQHLVDGRDMIIIRMPKDFPPFPQKLKFREPQREERICLVTTNFQTKSMSSMVSDTSCTFPSGDGIFWKHWIQTKDGQCGSPLVSTRDGFIVGIHSASNFTNTNNYFTSVPKNFMELLTNQEAQQWVSGWRLNADSVLWGGHKVFMVKPEEPFQPVKEATQR [L235R], the “area with substrate ENLYFQG” value was 0.116, the “area with substrate ENLYFQI” value is 0.0638, the “area with substrate ENLYFQN” value was 0.126 and the “area with substrate ENLYFQS” value is 0.116.
